Test results reported in PubChem BioAssay AID686979 (National Center for Advancing Translational Sciences (NCATS), 2013).
Out of some 420,000 compounds screened, about 50,000 (12%) were called active. This list was built around the results that the source calls inconclusive (neither active nor inactive); the mix of calls is not that of the screen. The call rests on the fitted dose curve; in most records, active means well fitted inhibition curve with a large enough effect; inconclusive means small, poorly fitted or top-dose-only effect; inactive means flat fitted curve, though single readings scatter. Potencies of inconclusive entries are left out as doubtful fits.

Experiment: qHTS for Inhibitors of human tyrosyl-DNA phosphodiesterase 1 (TDP1): qHTS in cells in presence of CPT; further: nearly all actives have a fitted effect of over 55% in size
Conditions: chicken DT40 Tdp1-/-;hTDP1 cells + 20 nM CPT, ATP luminescence, 48 h; activity change, negative = growth inhibition: at 46.2 µM (top of the series) unless noted
Procedure, shortened: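 Chicken DT40 Tdp1-/- cells stably complemented with human TDP1 were seeded at 400 cells/well in medium containing 20 nM camptothecin, exposed to pin-transferred compounds, and grown at 37 °C for at least 48 hr. Viability was read as ATP luminescence.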
On the % scale 0 is the no-effect control and ±100 the full control effect; potency means the concentration at half of the fitted maximal effect; tags describe the fitted curve by direction and shape.

Compound	Potency	activity change, negative = growth inhibition
CCOc1ccc(N2C(=O)c3n[nH]c(-c4cccs4)c3C2c2cccc(F)c2)cc1 (centres undefined)	inconclusive [inhibitor, single point]	–
O=c1[nH]ncc(NCc2ccc(Cl)cc2)c1Cl	inconclusive [inhibitor, single point]	–
CC(C)c1ccc(NC(=O)C(c2ccccc2)N(C)C(=O)CCc2c[nH]c3ccccc23)cc1 (centres undefined)	inconclusive [inhibitor, partial curve]	–
CCOC(=O)CSc1nc(N)nc(C)c1Cl	inconclusive [inhibitor, single point]	–
Cc1cc(C)c(S(=O)(=O)c2ccccc2C)c(Oc2ccccc2)n1	inconclusive [inhibitor, single point]	–
O=C(Cc1ccc(O)cc1)NC1CCCCCC1	–	inactive: -20.3%
COc1ccc(C(=O)O/N=C2\C(=O)N(C)c3ccccc32)cc1	active: 7.31 µM	–
OCC(CBr)(CBr)CBr	–	inactive: -1.04%
COC(=O)c1ccccc1N=Nc1c(N)[nH][nH]c1=O	inconclusive [inhibitor, single point]	–
Cc1ccc(Cn2c(C)c3cnn(CC(=O)NCc4ccccn4)c(=O)c3c2C)cc1	inconclusive [inhibitor, partial curve, poor fit]	–
COc1cccc(NC(=O)n2nc(N)cc2-c2ccc(Cl)cc2)c1	inconclusive [inhibitor, partial curve, poor fit]	–
O=C(C1CCN(S(=O)(=O)N2CCC3(CC2)OCCO3)CC1)N1CCN(Cc2ccccc2)CC1	–	inactive: -12.2%
CCOC(=O)[C@]12CCC=C1N(Cc1cccc3ccccc13)C(=O)[C@H](CC(=O)NCc1ccccc1)C2	inconclusive [inhibitor, single point]	–
CN(C)c1ccc(-c2nc(-c3ccco3)no2)cc1[N+](=O)[O-]	inconclusive [inhibitor, single point]	–
COc1ccc(S(=O)(=O)N2CCN(CC(=O)Nc3cc(C(F)(F)F)ccc3Cl)CC2)cc1	inconclusive [inhibitor, full curve, poor fit]	–
CC(=O)NCCc1nc2ccccc2n1CCOc1ccccc1	–	inactive: -1.35%
Cc1cc(NC(=O)c2ccccc2)ncc1NC(=O)c1ccco1	inconclusive [inhibitor, partial curve]	–
Brc1ccccc1/C=N/Nc1ccc2ccccc2n1	inconclusive [inhibitor, single point]	–
Cc1ccc(/C(=N/Nc2ncnc3ccccc23)C(=O)O)cc1	inconclusive [inhibitor, single point]	–
CC1(C(=O)NS(=O)(=O)c2cccc(C#N)c2)CCN1C(=O)Cc1ccccc1Cl (centres undefined)	–	inactive: -16.8%
O=C(C[n+]1ccncc1)c1ccc2c(c1)CCCC2	inconclusive [inhibitor, single point]	–
COc1ccccc1N1CCN(S(=O)(=O)c2c(C(=O)N3CCOCC3)c(C)n(C)c2C)CC1	inconclusive [inhibitor, single point]	–

Compound	Potency	activity change, negative = growth inhibition
CCCOC(=O)c1c(-c2ccc(OC)cc2)oc2ccc(-c3ccc(OC)nc3)cc12	inconclusive [inhibitor, partial curve]	–
CCc1ccc(NC(=O)c2ccc(F)c(S(=O)(=O)NCc3ccc(Cl)c(Cl)c3)c2)cc1	inconclusive [inhibitor, single point]	–
CCOc1ncnc2c1[nH]c1ccccc12	inconclusive [inhibitor, partial curve, poor fit]	–
Cc1ccc(Cl)cc1-n1ncc2c(NCCCc3ccccc3)ncnc21	active: 7.31 µM	–
CCOc1ccc2nc(NC(=S)NCc3ccccc3)sc2c1	inconclusive [inhibitor, single point]	–
O=C(NC1CCCc2c1cnn2-c1ccc(F)cc1F)c1ccccc1N1CCOCC1 (centres undefined)	inconclusive [inhibitor, single point]	–
COc1ccccc1-c1c(C(F)(F)F)oc2cc(OC(=O)c3cccc([N+](=O)[O-])c3C)ccc2c1=O	active: 20.6 µM	–
CCCCNc1nc(=S)n(-c2ccccc2)c(C)c1C(C)=O	active: 16.4 µM	–
CCc1cccc(CC)c1NC(=S)Nc1ccc2cn[nH]c2c1	–	inactive: -26.3%
COc1cc(NC(=O)CNc2cccc(S(=O)(=O)N3CCCC3)c2)cc(OC)c1	inconclusive [inhibitor, single point]	–
O=C(NC1CC1)c1ccc(N2CCCCC2)c([N+](=O)[O-])c1	inconclusive [inhibitor, partial curve]	–
Fc1ccc(-n2ncc3c(N4CCCCCC4)ncnc32)cc1	active: 11.6 µM	–
CCCN(CCC)S(=O)(=O)c1cccc(C(=O)N=c2sccn2C)c1	inconclusive [inhibitor, single point]	–
NNC(=O)c1ccc(CSc2nc3ccccc3[nH]2)cc1	inconclusive [inhibitor, single point]	–
Cc1ccc(NC(=O)N2CC3CCCN3c3ccccc32)c(C)c1 (centres undefined)	active: 23.1 µM	–
COc1ccc(-c2cc(C(=O)N3CCN(c4ccccc4O)CC3)c3ccccc3n2)cc1	inconclusive [inhibitor, single point]	–
N#CC1=C2N=C(N)c3ccccc3N2C2=C(C(=O)CCC2)C1c1cccc(Cl)c1 (centres undefined)	inconclusive [inhibitor, single point]	–
COc1ccc(CCNC(=O)c2ccc(F)c(S(=O)(=O)N3CCCCC3)c2)cc1	inconclusive [inhibitor, single point]	–
CC(C)NC(=O)C1(C)CN(S(C)(=O)=O)CC(=O)N1Cc1ccc2c(c1)OCO2 (centres undefined)	–	inactive: 18.8%
CCOC(=O)Cn1cc(Cl)c(=O)c(Cl)c1	–	inactive: 1.6%
CCn1c(SCC(=O)Nc2ccc(OC)cc2)nc2nc3c(cc2c1=O)CCCC3	inconclusive [inhibitor, single point]	–
CC1CCCC(C)N1C(=O)Cn1cc(/C=C2/C(=O)Nc3ccccc32)c2ccccc21 (centres undefined)	active: 18.4 µM	–
